Source: PubChem BioAssay (NCI)
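In this assay, cells in 96-well plates receive the compound at five concentrations for 48 hours. Endpoints are linearly interpolated between the surrounding concentrations. GI50 marks 50% less growth. Definition used: TGI = concentration required for complete inhibition of growth.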

system: NCI-H322M lung; assay: inhibition of tumour cell growth, NCI panel, 48 h

| Structure (SMILES) | GI50 [µM] | TGI [µM] |
| --- | --- | --- |
| COc1cc(/C=C/C(=O)c2cc(OC)c(OC)c(OC)c2)ccc1OCc1ccc(F)cc1 | 2.69 | 32 |
| O=C(CSc1nnc(-c2ccc(Cl)cc2)n1-c1ccccc1)Nc1cccc(F)c1 | 3.57 | > 100 |
| O=C(NNc1nc2cc(F)c(F)cc2n2c(CN3CC4CNCC4C3)ccc12)c1cnccn1 (stereo unspecified) | 0.829 | 13.6 |
